Reference: PubChem BioAssay AID1346428 (National Center for Advancing Translational Sciences (NCATS), 2018)
Values joined by “and” are separate entries in the source; they are usually repeats but may differ in a detail not shown here. Equal values may be shown once. Among all 48,000 compounds or so, about 1,200 (2.5%) were called active. Not shown: some 2% with an inconclusive outcome.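 Rule for the calls: active = activation of at least 60% and not above a set upper limit (about 1 call in 100 departs from these limits); inconclusive = activation of 40% to 60%, or above that upper limit; inactive = activation under 40%.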 The list shows a part of the results.

molecular target: Probable G-protein coupled receptor 32 (Homo sapiens) (UniProt O75388); test: qHTS for Agonists of Human Resolvin D1 Receptor DRV1; details: CHO-K1 GPR32 beta-arrestin PathHunter luminescence, 90 min; at 76.9 µM; active compounds read high; zero percent set by DMSO-only wells; note: 0% is about no effect
Chain of UniProt O75388 (O75388 whole entry, looked up): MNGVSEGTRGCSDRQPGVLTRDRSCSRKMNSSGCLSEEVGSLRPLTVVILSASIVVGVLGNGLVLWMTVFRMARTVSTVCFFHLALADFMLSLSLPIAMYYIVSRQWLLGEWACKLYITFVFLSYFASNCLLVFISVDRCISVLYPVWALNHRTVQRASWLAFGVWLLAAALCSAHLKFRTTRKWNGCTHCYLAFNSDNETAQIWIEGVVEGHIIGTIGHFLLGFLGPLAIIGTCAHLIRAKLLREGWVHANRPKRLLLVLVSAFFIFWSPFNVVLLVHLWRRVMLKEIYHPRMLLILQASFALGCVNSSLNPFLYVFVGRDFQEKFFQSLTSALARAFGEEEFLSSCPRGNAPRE
Outline: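 Readings come from a cell-based beta-arrestin complementation format: CHO-K1 GPR32 stable cells (2,500/well) treated 90 min with compounds, then beta-Gal substrate added for 1 h before chemiluminescence imaging.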

| SMILES | activation |
| --- | --- |
| CNS(=O)(=O)c1cn(CC(=O)N2CCN(c3ccc(Cl)cc3)CC2)cc1S(=O)(=O)NC | inactive: -3.4% |
| Cc1cc(C)c(NC(=O)COCc2cc(-c3cccs3)on2)c(C)c1 | inactive: -10.7% |
| COC(=O)c1scc(-c2ccc(C)cc2)c1S(=O)(=O)Nc1ccc(NC(C)=O)cc1 | inactive: -7.43% |
| COc1ccc(-c2cn3nc(SCC(=O)Nc4ccccc4F)ccc3n2)cc1 | inactive: -12.5% |
| CCc1cccc(N2C(=O)CSC23C(=O)N(Cc2ccccc2F)c2ccccc23)c1 (centres undefined) | inactive: -4.12% |
| COc1ccc(-n2ncc(C(=O)NCc3ccc4c(c3)OCO4)c2C2CCN(C(=O)OC(C)(C)C)CC2)cc1 | inactive: -18.9% |
| Cc1cccc(OCC(=O)Nc2cccc(C(=O)OCc3cc(=O)n4c(C)csc4n3)c2)c1 | inactive: -12.9% |
| COc1ccc(S(=O)(=O)N(CC(=O)NCCSc2ccccc2)c2ccc(Cl)cc2)cc1 | inactive: 6.94% |
| O=C(CSc1nccn1Cc1ccc(F)cc1)NCc1ccccc1 | inactive: -7.78% |
| COC(=O)c1sccc1S(=O)(=O)N(CC(=O)Nc1cc(C)cc(C)c1)c1ccc(Cl)cc1 | inactive: -3.24% |
| COc1ccc(-n2c(SCC(=O)NCc3ccccc3)nc3ccsc3c2=O)cc1 | inactive: -10.9% |
| COc1ccc(CNC(=O)CN2C(=O)COc3ccc(S(=O)(=O)N4CCCCCC4)cc32)cc1 | inactive: -17.5% |
| Cc1ccc(C2Nc3ccccc3-n3c(-c4ccccc4)c4c(=O)n(C)c(=O)n(C)c4c32)cc1 (centres undefined) | inactive: -3.35% |
| COc1ccc(NC(=O)c2nn(C)c3c2CSc2ccc(C)cc2-3)cc1OC | inactive: 26.1% |
| COCCCNC(=O)c1ccc(Cn2c(=O)c3ccccc3n(Cc3ccc(C)cc3)c2=O)cc1 | inactive: -6.72% |
| COc1cccc(NC(=O)c2ccc3c(=O)n4nc(Nc5ccccc5OC)sc4nc3c2)c1 | inactive: 2.94% |
| COc1ccc(CNC(=O)c2ccc(CNS(=O)(=O)c3ccc(OC)cc3)cc2)cc1 | inactive: -1.21% |
| CCOC(=O)c1ccc(NC(=O)CC2Nc3cc(C)c(C)cc3NC2=O)cc1 (centres undefined) | inactive: -33.3% |
| COCCOC(=O)Cn1nnc2sc(-c3ccccc3)cc2c1=O | inactive: 0.914% |
| Cc1nn(S(=O)(=O)c2ccc(C(C)C)cc2)c(C)c1S(=O)(=O)N1CCCCC1 | inactive: 24.9% |
| Cc1ccc2c(c1)-c1c(cnn1CC(=O)N1CCN(c3cccc(C(F)(F)F)c3)CC1)CO2 | inactive: 1.75% |

| SMILES | activation |
| --- | --- |
| CC(=O)N1CCCc2cc(S(=O)(=O)N3CCCC(C(=O)N4CCN(c5ccccc5F)CC4)C3)ccc21 (centres undefined) | inactive: 40.9% |
| Cc1nc(SCC(=O)OC(C)(C)C)c2c3c(sc2n1)CCCC3 | inactive: 47.8% |
| CCc1cccc(C)c1NS(=O)(=O)c1ccc2c(c1)NC(=O)C(C)C(=O)N2 (centres undefined) | inactive: -3.63% |
| CCOc1ccc(-n2c(=O)c3c4c(sc3n(CC(=O)NCCCOC)c2=O)CCCCC4)cc1 | inactive: 4.09% |
| Cc1ccccc1Nc1c(-c2ccc(O)cc2)nc2c(C)cccn12 | inactive: -4.01% |
| COc1cccc(CNC(=O)CSc2nnc(C)c3c(C)n(-c4ccccc4)nc23)c1 | inactive: -4.3% |
| NC(=O)c1cn(Cc2c(F)cccc2F)nn1 | inactive: -11.7% and inactive: 4.34% |
| COc1cc2c(N3CCN(C(=O)Nc4ccc(OC(C)C)cc4)CC3)ncnc2cc1OCCCN1CCCCC1 | inactive: 3.66% |
| CCC(C(=O)Nc1ccc(F)cc1F)n1nc(-c2ccccc2)c2c(c1=O)CCCC2 (centres undefined) | inactive: -22.2% |
| COc1ccc(NC(=O)CCS(=O)(=O)c2cc3c4c(c2)CCN4C(=O)CC3)cc1OC | inactive: 1.99% |
| CC(=O)N1c2ccccc2CC1C(=O)N1CCN(c2cc(Cl)ccc2C)CC1 (centres undefined) | inactive: 47.9% |
| Cc1nc(N)c(S(=O)(=O)c2ccccc2)c(Nc2ccc(Br)cc2)n1 | inactive: -0.503% |
| COc1cccc(/C=C/c2nc3ccccc3c(=O)n2-c2ccc(C)c(C)c2)c1OC | inactive: -2.7% |
| COc1ccc(Cl)cc1S(=O)(=O)N1CCC(c2ccncc2)CC1 | inactive: 9.74% |
| COc1ccc(NC(=O)c2ccco2)cc1NC(=O)COc1cc(C)ccc1C(C)C | inactive: 32.8% |
| CCOc1ccc(NC(=O)c2c(NC(=O)c3ccncc3)sc3c2CCC(C(C)(C)C)C3)cc1 (centres undefined) | inactive: 5.53% |
| COc1ccc(-c2nnc(SCC(=O)Nc3ccc(C)c(Cl)c3)nc2-c2ccc(OC)c(OC)c2)cc1OC | inactive: -26.2% |
| O=C(c1ccc(F)cc1)N1CCN(CCc2ccncc2)CC1 | inactive: 3.74% |
| Cc1cccc(OCC(=O)NCc2ccc3c(c2)CCN3C(=O)c2ccc(Cl)cc2)c1 | inactive: 6.93% |
| O=C(c1cccn1-c1nnc(N2CCCC2)s1)N1CCN(c2ccc(F)cc2)CC1 | inactive: -12.3% |
| O=C(Cn1cc(SCc2ccc(Cl)cc2)c2ccccc21)N1CCCC1 | inactive: -18.1% |

| SMILES | activation |
| --- | --- |
| CC(=O)Nc1ccc(NC(=O)CN2C(=O)CCc3cc(S(=O)(=O)N4CCCCC4)ccc32)cc1 | inactive: 9.21% |
| Cc1cccc(CNC(=O)CN2CC(C)Sc3ccccc32)c1 (centres undefined) | inactive: -5.8% |
| O=C(Nc1ccc(F)cc1)Nc1nnc(SCC(=O)N2CCCCC2)s1 | inactive: 2.04% |
| COc1cccc(NC2=CC(c3ccc(C(C)C)cc3)N(c3cccc(OC)c3)C2=O)c1 (centres undefined) | inactive: -23.7% |
| Cc1c(Cl)cccc1-n1nnc(-c2nc(-c3ccc4c(c3)OCO4)no2)c1C | inactive: -2.24% |
| Cc1c(C(=O)N(Cc2cccc(Cl)c2)Cc2ccco2)oc2ccccc12 | inactive: 0.249% |
| COc1ccc(C)cc1NS(=O)(=O)c1cc(Br)cc2c1N(C(C)=O)C(C)C2 (centres undefined) | inactive: -7.96% |
| O=C(OCC(O)CO)c1ccccc1Nc1ccnc2cc(Cl)ccc12 (centres undefined) | inactive: 18.4% |
| CCN(CC)C(=O)c1sc2c(c1C)c(=O)n(Cc1ccccc1)c(=O)n2CC(=O)Nc1ccc(OC)cc1 | inactive: -19.6% |
| CCCSc1ncc(Cl)c(C(=O)Nc2sc3c(c2C(N)=O)CCCC3)n1 | inactive: -7.45% |
| Cc1ccccc1CNC(=O)Cc1csc2ccccc12 | inactive: -20.8% |
| COc1ccccc1NC(=O)CCNS(=O)(=O)c1ccc2c(c1)CCN2C(=O)C1CC1 | inactive: 49.2% |
| COC(=O)c1ccc(-n2nnc(-c3nsc(NC(=O)c4ccc(Cl)cc4)n3)c2C)cc1 | inactive: -9.91% |
| O=c1c(NCCc2ccc(Cl)cc2)nccn1-c1ccccc1 | active: 91.1% |
| Cc1ccc(C)c(N2CCN(S(=O)(=O)c3ccc(F)c(C(=O)Nc4ccc(Cl)cc4Cl)c3)CC2)c1 | inactive: -14.4% |
| Cc1cc2n(n1)CCCN2C(=O)Nc1ccc(C)c(Cl)c1 | inactive: -3.15% |
| COc1ccc(OC)c(CCNC(=O)c2cc3cccc4c3n2CCS4)c1 | inactive: -16.1% |
| CCOC(=O)c1c(C)oc2ccc(N(C(=O)c3ccncc3)S(=O)(=O)c3ccc(F)cc3)cc12 | inactive: -6.66% |
| CN(c1ccccc1)S(=O)(=O)c1nnc(NC(=O)c2cccs2)s1 | inactive: 36% |
| CCN(Cc1ccccc1)C(=O)CCS(=O)(=O)c1cc(Br)cc2c1N(C(=O)C1CC1)CC2 | inactive: -11.4% |
| CCc1ccccc1N(C)C(=O)c1cc2c(Cl)nc3ccc(C)cc3c2s1 | inactive: -9.28% |

| SMILES | activation |
| --- | --- |
| Cc1ccc2[nH]c3c(=O)n(CC(=O)NCCCN4CCN(c5ccc(F)cc5)CC4)ncc3c2c1 | inactive: -11.7% |
| CCOc1ccccc1NC(=O)Cn1c(=O)n(CCCCC(=O)NCCCOC)c(=O)c2ccccc21 | inactive: -19.1% |
| c1ccc2[nH]ccc2c1 | inactive: -5.14% |
| N#Cc1ccccc1Cn1c(=O)n(-c2ccccc2)c(=O)c2c3c(sc21)CCC3 | inactive: -13.4% |
| O=C(NCc1cccc(F)c1)C1CCN(c2nn3cc(-c4ccc(F)cc4)nc3s2)CC1 | inactive: 8.02% |
| CCc1ccc(NC(=O)Cn2nnc(C(=O)NCCc3ccccc3)c2N)cc1 | inactive: -2.9% |
| O=C(Nc1ccc(O)c(-c2nc3ccccc3o2)c1)c1ccc(-c2cccc(Cl)c2)o1 | inactive: 10.7% |
| Cc1cccc(C)c1NC(=O)c1nc(SC(C)C)ncc1Cl | inactive: -2.51% |
| Cc1ccccc1CNCCSc1nnnn1C | inactive: 1.93% |
| CC1CCN(S(=O)(=O)c2ccc3c(c2)oc(=O)n3CC(=O)N2CCCCC2)CC1 | inactive: 6.75% |
| Cc1cc(C)cc(N(CC(=O)Nc2ccc(C)cc2Cl)S(=O)(=O)c2c(C)[nH]c(=O)[nH]c2=O)c1 | active: 78.6% |
| COCCCNC(=O)C1CCN(C(=O)c2ccc(-n3ccc4ccccc43)s2)CC1 | inactive: 6.32% |
| Cc1ccc(CN2C(=O)C3(c4ccccc42)N(c2ccc(C)c(Cl)c2)C(=O)CS3(=O)=O)cc1 (centres undefined) | inactive: 4.21% |
| CCc1nc2sc3c(N4CCCCC4)ncnc3c2c2c1CCCC2 | inactive: 13.2% |
| Cc1cccc(C)c1NC(=O)c1ccc(N)cc1 | inactive: -13.7% |
| COc1cccc(/C=C(\C#N)C(=O)Nc2ccc(NC(C)=O)cc2)c1OC | inactive: -20.4% |
| COc1ccc(NC(=O)CSc2cn(CCNC(=O)c3ccc(OC)cc3)c3ccccc23)cc1 | inactive: 11.7% |
| O=C(CCC1N=C2c3ccccc3N=C(SCc3cccc(Cl)c3)N2C1=O)NCCc1ccccc1 (centres undefined) | inactive: 19.7% |
| COc1ccc(NC(=O)CCS(=O)(=O)c2ccc3c(c2)n(C)c(=O)c(=O)n3C)cc1Cl | inactive: -3.52% |
| CCCCC(O)/C=C(C)/C=C/C=C/C(=O)N1CCCC1=O (centres undefined) | inactive: -17.1% |
| Cc1oc(-c2cccc(Br)c2)nc1Cn1c(SCc2cccc(F)c2)nc2cccnc21 | inactive: -19.9% |
